From PubChem BioAssay AID488969 (Vanderbilt High Throughput Screening Facility, 2010)
Whole data set: some 110,000 compounds, median “z-score” near -0.1, cut for the highest 2% near 2. The list shows a part of the results. Active and inactive are the calls of the source.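 The calls were made as follows: active = z-score in the third read window above 3 or below -3; inactive = the rest.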

molecular target: Metabotropic glutamate receptor 8 (Rattus norvegicus) (UniProt P70579); assay: mGluR8 Gi/Go-coupled signaling modulation – cell-based, rat, thallium flux, HTS, primary screen (AID 488969); conditions: HEK293 rat mGluR8, GIRK (G protein-gated inwardly rectifying potassium channel) thallium flux, FluoZin2; at 10 µM; stronger effect = higher value; submaximal glutamate (EC20) added with thallium
Sequence of UniProt P70579 (P70579 whole entry, looked up): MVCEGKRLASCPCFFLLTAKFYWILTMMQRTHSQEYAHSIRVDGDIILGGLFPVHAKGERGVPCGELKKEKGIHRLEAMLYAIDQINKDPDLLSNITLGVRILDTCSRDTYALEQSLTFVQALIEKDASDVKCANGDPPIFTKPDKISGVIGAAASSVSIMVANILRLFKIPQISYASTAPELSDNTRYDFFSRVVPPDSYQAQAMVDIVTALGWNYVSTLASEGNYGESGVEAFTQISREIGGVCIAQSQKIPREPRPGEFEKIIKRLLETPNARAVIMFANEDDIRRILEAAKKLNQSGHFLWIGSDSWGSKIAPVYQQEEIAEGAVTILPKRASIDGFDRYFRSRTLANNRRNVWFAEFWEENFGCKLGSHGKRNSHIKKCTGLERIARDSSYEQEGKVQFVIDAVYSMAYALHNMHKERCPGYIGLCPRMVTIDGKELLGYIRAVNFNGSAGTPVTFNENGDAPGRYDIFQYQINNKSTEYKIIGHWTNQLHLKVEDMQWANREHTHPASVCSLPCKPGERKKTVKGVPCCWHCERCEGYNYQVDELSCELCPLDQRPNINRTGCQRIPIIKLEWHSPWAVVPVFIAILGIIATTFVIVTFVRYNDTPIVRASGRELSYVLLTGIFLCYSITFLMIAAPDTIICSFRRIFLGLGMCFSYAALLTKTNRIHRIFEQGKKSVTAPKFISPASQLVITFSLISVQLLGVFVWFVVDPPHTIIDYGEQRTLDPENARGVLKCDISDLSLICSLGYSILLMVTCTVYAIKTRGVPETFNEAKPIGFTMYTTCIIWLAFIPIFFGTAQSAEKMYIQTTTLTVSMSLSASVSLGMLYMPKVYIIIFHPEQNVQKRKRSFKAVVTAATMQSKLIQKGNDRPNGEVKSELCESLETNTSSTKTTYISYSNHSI

| Structure (SMILES) | z-score |
| --- | --- |
| CCOC(=O)C1=C(O)/C(=C/c2ccc(CNC(=O)C(=O)Nc3ccc(C)cc3)o2)N=C1C | -0.118 |
| Cc1ccc(C(=O)Nc2nc(=O)n(C(=O)C3CC3)s2)cc1 | -0.185 |
| O=C(CCNS(=O)(=O)c1ccc(Cl)cc1)NCc1ccccn1 | 0.775 |
| Cc1ccc2nc(SCc3ccc([N+](=O)[O-])cc3)[nH]c2c1 | -0.559 |
| CC(C)CNC(=O)C1CCCN1S(=O)(=O)c1ccc(Cl)cc1 (stereo not given) | 0.241 |
| O=C(CSc1c2c(nc3cc(Cl)ccc13)CCCC2)NCc1ccco1 | -0.36 |
| COc1cccc(NC(=O)C2C3C=CC(O3)C2C(=O)NCc2cccnc2)c1 (stereo not given) | -0.0842 |
| CCc1nc(SCC(=O)NCc2ccco2)c2c3c(sc2n1)CCCC3 | 0.232 |
| O=C(N/N=C/c1ccco1)c1cc(Br)ccc1OCc1ccccc1 | 0.0858 |
| c1ccc(-c2noc(CN3CCN(c4ccccc4)CC3)n2)cc1 | 0.197 |
| Cc1cc(NC(=O)C2CCCC2)nc2c1c(=O)oc1ccccc12 | -0.0802 |
| CCCNS(=O)(=O)c1ccc(OCC(=O)NCCCOC)cc1 | -0.378 |
| O=C(CSc1ccc2ccccc2c1)Nc1ccc(S(=O)(=O)Nc2nccs2)cc1 | 0.216 |
| Cc1nc2ccccc2n1/N=C/c1cccnc1 | -0.186 |
| Cc1ccccc1N=C1SC(CC(=O)Nc2ccc3ccccc3c2)C(=O)N1Cc1ccccn1 (stereo not given) | -0.357 |
| CC1CC(=O)C2=C(C1)Nc1ncnn1C2c1ccccc1 (stereo not given) | 1.35 |
| O=C(O)c1cc(Cl)c2ccccc2c1O | -1.43 |
| CCCCN(CC)C(=O)Cn1cnc2ccc(S(=O)(=O)N3CCC(C)CC3)cc2c1=O | -0.128 |
| CN(C)c1ccc([C@@H]2[C@@H]([N+](=O)[O-])[C@H]3C=Cc4ccccc4N3[C@H]2C(=O)c2ccc(Cl)cc2)cc1 | 0.511 |
| CC1(C(=O)N2CC3(CC(c4ccccc4)=NO3)C[C@H]2C(=O)NCC(N)=O)CC1 (stereo not given in full) | -0.0396 |
| C=CCn1c(N)c(C(=O)NCC2CCCO2)sc1=S (stereo not given) | 0.129 |
| COc1ccc(CNC(=O)c2ccc(NC(=O)CC3SC(N4CCCC4)=NC3=O)cc2)cc1 (stereo not given) | -0.116 |

| Structure (SMILES) | z-score |
| --- | --- |
| COc1ccc(S(=O)(=O)N2CCN(C3Cc4ccccc4C3)CC2)cc1 | -0.439 |
| CCOC(=O)C1CSC(CC(=O)Nc2ccc(Cl)c(Cl)c2)C(=O)N1 (stereo not given) | 1.38 |
| CCC(=O)NC(NCC1CCCO1)C(Cl)(Cl)Cl (stereo not given) | -0.0963 |
| CN(Cc1nc(-c2ccncc2)no1)S(=O)(=O)c1ccc(Br)cc1 | 0.529 |
| Cc1ccc(OCCCC(=O)Nc2ccc(N3CCOCC3)cc2)c(C)c1 | 0.793 |
| Clc1ccc(SCc2cc(-c3ccccc3)no2)cc1 | -0.0581 |
| Cc1cc(C)n(CCCNC(=O)c2ccc3c(c2)NC(=O)CS3)n1 | -0.171 |
| COc1cccc(C(=O)NC2CCN(CC(=O)Nc3nccs3)CC2)c1 | -0.769 |
| COc1ccc(N(C(C)=O)S(=O)(=O)c2cc(OC)ccc2OC)cc1 | 0.226 |
| Cc1nn(CC(=O)Nc2ccc(C(=O)N3CCCCC3)cc2)c(=O)c2ccccc12 | 0.27 |
| CC1(C(=O)Nc2nccs2)Cc2ccccc2C(=O)O1 (stereo not given) | -0.876 |
| CC(C)NC(=O)c1cc2c(-c3ccc(Cl)cc3)nn(C)c2s1 | 0.0729 |
| O=c1cc(NC2CCCCCC2)[nH]c(=O)[nH]1 | 0.183 |
| CC(C)Oc1ccc(/C=N/NC(=O)C(CSCc2ccccc2)NC(=O)c2ccc([N+](=O)[O-])cc2)cc1 (stereo not given) | -0.341 |
| Cc1cc(C)cc(N2C(=O)CN(Cc3sccc3C)C2=S)c1 | -0.593 |
| CCOC(=O)c1nnc2c(Br)c(-c3ccccc3)nn2c1C | -0.554 |
| Cn1c(=O)c2c(nc(NCCCO)n2Cc2cccc(C(F)(F)F)c2)n(C)c1=O | 0.194 |
| Cc1ccc(-n2ncc3c(Nc4c(C)n(C)n(-c5ccccc5)c4=O)ncnc32)c(C)c1 | 0.188 |
| O=C(CCS(=O)(=O)c1ccc(Br)s1)NC1CCCC1 | -0.142 |
| CC(NC(=O)c1ccccc1NS(C)(=O)=O)c1ccccc1 (stereo not given) | 0.106 |
| CCOc1ccccc1C1CC(c2ccc(Cl)cc2)Nc2nc(N)nn21 (stereo not given) | 0.222 |
| CC(C)N1C(=O)CCC1C(=O)NCCc1ccccc1 (stereo not given) | -0.366 |

| Structure (SMILES) | z-score |
| --- | --- |
| C[N+]12CCCCC1C(COC(=O)c1ccc3c(c1)OCO3)CCC2 (stereo not given) | -0.0748 |
| O=C(CSc1ccccc1)Nc1cc(Cl)ccc1Oc1ccccc1 | -0.0314 |
| COc1ccc(C(=O)Nc2ccc(S(=O)(=O)N3CCCCC3C)cc2)c(OC)c1OC (stereo not given) | 0.153 |
| CN(C)c1ccc(CN(C(=O)COc2ccccc2)C2CCS(=O)(=O)C2)cc1 (stereo not given) | -0.709 |
| CC(C)N(C)CCOC(=O)c1ccc2c(c1)OCCO2 | 0.155 |
| COc1cc([N+](=O)[O-])ccc1NC(=O)CCCOc1ccccc1 | -0.378 |
| Cc1ccc(C(=O)n2nc(-c3ccccc3)nc2NCc2ccco2)cc1 | -0.173 |
| C=CCN1C(=O)CSc2ccc(C(=O)NCc3ccco3)cc21 | 0.732 |
| Cc1ccc(NC(=O)c2cc(S(=O)(=O)NCCC3=CCCCC3)ccc2F)cc1 | -0.136 |
| O=C(Nn1cnnc1)c1ccc(F)c(S(=O)(=O)N2CCCCC2)c1 | -0.168 |
| CN(C)c1ccc(C2OC(=O)C3(CCCC3)C(=O)C2(C)C)cc1 (stereo not given) | -0.0938 |
| c1nnc2c3c4c(sc3ncn12)CCCC4 | -0.205 |
| Cc1cc(C=C2C(=O)CCCC2=O)c(C)n1-c1ccccc1 | -0.169 |
| CCN(CC)c1ccc(NC(=O)CSc2nc(C)cc(=O)[nH]2)cc1 | -0.559 |
| CCc1ccc(N(CC(=O)Nc2ccccc2C(=O)N2CCOCC2)S(C)(=O)=O)cc1 | -0.219 |
| CC1(C)Cc2nc(NCCN3CCOCC3)c(C#N)cc2CO1 | active: 7.19 |
| Cc1ccc(CNc2ccc(S(=O)(=O)N3CCOCC3)cc2[N+](=O)[O-])cc1 | 0.0549 |
| COC(=O)c1ccccc1NC(=O)CSc1nccn1C | -0.372 |
| CC(=O)c1cc2c(cc1NC(=O)CN1CCN(c3ccc(F)cc3)CC1)OCO2 | -0.109 |
| Cc1ccc(C(=O)Nc2nc(-c3cc(Cl)sc3Cl)cs2)cc1 | -0.946 |
| O=C(C1=NNCC1c1ccc(Cl)cc1)C1CO1 (stereo not given) | -0.386 |
| O=S1(=O)c2ccccc2N=NN1Cc1cc(Cl)cc(Cl)c1 | -0.076 |

| Structure (SMILES) | z-score |
| --- | --- |
| COc1ccc(CCC(=O)Nc2cccc(S(=O)(=O)N(C)C)c2)cc1OC | -0.0481 |
| CCOCCCNS(=O)(=O)c1ccc2c(c1)CCN2C(=O)CC | -0.314 |
| O=c1[nH]c2ccc(NC(=S)Nc3ccc(Cl)cc3Cl)cc2[nH]1 | 0.027 |
| Cc1nnc(SCC(=O)N2c3ccccc3C(C)(c3ccc(Cl)cc3)CC2(C)C)s1 (stereo not given) | 0.227 |
| O=c1cc2c(nn1Cc1c(Cl)cccc1Cl)-c1ccccc1CC2 | -0.164 |
| C=CCNC(=O)c1cccc(Br)c1 | -0.15 |
| O=C(CN1CCOCC1)Nc1cccc(Br)c1 | -0.534 |
| Cc1ccc(NCC(=O)N/N=C/c2cccc(Oc3ccccc3)c2)cc1 | -0.211 |
| Nc1cc(=O)[nH]c(SCC(=O)Nc2ccc(F)c(Cl)c2)n1 | -0.193 |
| S=c1sc2c(N3CCOCC3)ncnc2n1-c1ccccc1 | 0.0646 |
| CCc1cc2c(N=Nc3c(O)[nH]c4ccccc34)ncnc2s1 | -0.149 |
| O=C(Nc1ccccc1)C1=C(N2CCOCC2)/C(=C/c2cccnc2)CC1 | -0.685 |
| O=C(O)C1C2CCC(O2)C1C(=O)Nc1ccc(O)cc1 (stereo not given) | -0.366 |
| Cc1cc2ncn(C3CC(=O)N(Cc4ccccc4)C3=O)c2cc1C (stereo not given) | 0.055 |
| O=c1[nH]c(CN2CCCCC2)nc2ccccc12 | 0.00805 |
| O=C(Oc1ccccc1)c1ccccc1OS(=O)(=O)c1ccccc1 | -0.195 |
| COCCCN(C(=O)Nc1ccc(C)c(C)c1)C(C)c1ccccn1 (stereo not given) | -0.345 |
| COc1ccc(C(=O)NNC2=NC(C)(C)Cc3ccccc32)cc1 | 0.619 |
| CCc1cc2c(CN3CCN(CCO)CC3)cc(=O)oc2cc1O | 0.149 |
| CC(=O)Nc1ccc(S(=O)(=O)NNC(=O)c2cc3c4ccccc4n(C)c3s2)cc1 | -0.78 |
| CCOC(=O)c1ccc(Nc2ncnc3nc[nH]c23)cc1 | -0.0179 |
| CCN(CC)c1ccc(NC(=O)CSc2ccsc2[N+](=O)[O-])c(C)c1 | -0.0677 |

| Structure (SMILES) | z-score |
| --- | --- |
| CN(C)c1ccc(C2N(C(=O)N3CCOCC3)CCN2S(=O)(=O)c2ccccc2)cc1 (stereo not given) | -0.722 |
| CCC(C)C(=O)Nc1ccc(OC)cc1OC (stereo not given) | -0.0848 |
| CC1CCC(C(C)C)C(OC(=O)Cn2c(-c3ccc(F)cc3)[n+](C)c3ccccc32)C1 (stereo not given) | -0.093 |
| COc1cccc(C(=O)N2CCCc3ccccc32)c1 | -1.31 |
| CC1CN(Cc2nc3c(c(=O)n(C)c(=O)n3C)n2CCCO)CC(C)O1 (stereo not given) | -0.388 |
| CN1CC=C2C(C#N)=C(N)C(C#N)(C#N)[C@H](c3ccoc3)[C@H]2C1 | 0.459 |
| O=Cc1ccc(OC2OCCOC2Oc2ccc(C=O)cc2)cc1 (stereo not given) | -0.288 |
| CC1(c2cccc3ccccc23)NC(=O)N(CC(=O)NC2CCS(=O)(=O)C2)C1=O (stereo not given) | -0.069 |
| O=S(=O)(c1ccc(N2CCCC2)nc1)N1CCOCC1 | -0.203 |
| O=C1Nc2ccccc2C1(c1ccccc1)c1ccccc1 | -0.565 |
| CCOC(=O)c1ccc(NC(=O)CCC(CC)C(=O)O)cc1 (stereo not given) | -0.395 |
| COc1ccc(-n2cc(-c3ccc(C)cc3)[n+]3c2SCC3)cc1 | -0.0247 |
| Cc1ccc(C(=O)N/C(=C\c2cccs2)C(=O)NCc2ccncc2)cc1 | -0.136 |
| COc1cccc(NC(=S)N/N=C2/CCCCc3ccccc32)c1 | active: 8.28 |
| CCCCn1c(CN(C)Cc2ccccc2)nc2c1c(=O)n(C)c(=O)n2C | 0.165 |
| O=C(Nc1cccc(S(=O)(=O)N2CCOCC2)c1)c1c2c(nc3ccccc13)CCC2 | 0.614 |
| COc1cccc(NC(=O)CCNC(=O)Cn2ccc3ccccc3c2=O)c1 | 0.105 |
| COc1ccc(O)c(-c2[nH]ncc2C(=O)c2ccccc2C)c1 | 0.0126 |
| COc1cc(OC)cc(-c2nnc(Sc3ccc(C=O)cc3[N+](=O)[O-])o2)c1 | -0.277 |
| OCC(O)C(O)C(O)C(O)C1NCCS1 (stereo not given) | -0.0483 |
| CCN1CCN(C(=O)c2ccc3c(c2)N(Cc2ccc(F)cc2)C(=O)c2ccccc2S3=O)CC1 (stereo not given) | 0.168 |
| O=C(Nc1cc(F)cc(F)c1)c1sc(Cl)nc1-c1ccccc1 | -0.761 |
